# Some of the results follow.
# Legend:
# Assay in all cases: glycan array binding signal (z-score within array); higher = stronger binding
# Conditions in all cases: glycan notation: IUPAC condensed, linker removed
# [1] = molecular target: Gal(b1-4)GlcNAc(b1-2)Man(a1-3)[Gal(b1-4)GlcNAc(b1-2)Man(a1-6)]Man(b1-4)GlcNAc(b1-4)GlcNAc
# Procedure, shortened: (§1)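 Glycan array data were curated from 3228 arrays in the Consortium for Functional Glycomics database and kept only where the protein sequence was available. Glycan names were converted to IUPAC-condensed notation, and columns mapping to the same glycan were averaged. The binding signal is a within-array Z-score, averaged across arrays of the same protein sequence at different concentrations or buffers and across linkers. Negative Z-scores can be read as non-binding.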
# [2] = molecular target: Gal(b1-4)GlcNAc(b1-2)Man(a1-3)[Gal(b1-4)GlcNAc(b1-2)Man(a1-6)]Man(b1-4)GlcNAc(b1-4)[Fuc(a1-6)]GlcNAc
# Procedure, shortened: as §1
# [3] = molecular target: Gal(b1-4)GlcNAc(b1-2)Man(a1-3)[Gal(b1-4)GlcNAc(b1-2)][GlcNAc(b1-4)]Man(b1-4)GlcNAc(b1-4)GlcNAc
# Procedure, shortened: as §1
# [4] = molecular target: Gal(b1-4)GlcNAc(b1-2)Man(a1-3)[GlcNAc(b1-2)Man(a1-6)]Man(b1-4)GlcNAc(b1-4)GlcNAc
# Procedure, shortened: as §1
# [5] = molecular target: Gal(b1-4)GlcNAc(b1-2)Man(a1-3)[Man(a1-6)]Man(b1-4)GlcNAc(b1-4)GlcNAc
# Procedure, shortened: as §1
# [6] = molecular target: Gal(b1-4)GlcNAc(b1-2)Man(a1-6)Man(b1-4)GlcNAc(b1-4)GlcNAc
# Procedure, shortened: as §1
# [7] = molecular target: Gal(b1-4)GlcNAc(b1-2)Man(a1-6)[GlcNAc(b1-2)Man(a1-3)]Man(b1-4)GlcNAc(b1-4)GlcNAc
# Procedure, shortened: as §1
# [8] = molecular target: Gal(b1-4)GlcNAc(b1-2)Man(a1-6)[Man(a1-3)]Man(b1-4)GlcNAc(b1-4)GlcNAc
# Procedure, shortened: as §1
# [9] = molecular target: Gal(b1-4)GlcNAc(b1-2)[Gal(b1-4)GlcNAc(b1-4)]Man(a1-3)[Gal(b1-4)GlcNAc(b1-2)Man(a1-6)]Man(b1-4)GlcNAc(b1-4)GlcNAc
# Procedure, shortened: as §1
# [10] = molecular target: Gal(b1-4)GlcNAc(b1-2)[Gal(b1-4)GlcNAc(b1-4)]Man(a1-3)[Gal(b1-4)GlcNAc(b1-2)[Gal(b1-4)GlcNAc(b1-6)]Man(a1-6)]Man(b1-4)GlcNAc(b1-4)GlcNAc
# Procedure, shortened: as §1
# [11] = molecular target: Gal(b1-4)GlcNAc(b1-2)[Gal(b1-4)GlcNAc(b1-4)]Man(a1-3)[GlcNAc(b1-4)][Gal(b1-4)GlcNAc(b1-2)Man(a1-6)]Man(b1-4)GlcNAc(b1-4)GlcNAc
# Procedure, shortened: as §1
# [12] = molecular target: Gal(b1-4)GlcNAc(b1-2)[Gal(b1-4)GlcNAc(b1-4)]Man(a1-3)[GlcNAc(b1-4)][Gal(b1-4)GlcNAc(b1-2)[Gal(b1-4)GlcNAc(b1-6)]Man(a1-6)]Man(b1-4)GlcNAc(b1-4)GlcNAc
# Procedure, shortened: as §1
# [13] = molecular target: Gal(b1-4)GlcNAc(b1-2)[Gal(b1-4)GlcNAc(b1-6)]Man(a1-6)[Gal(b1-4)GlcNAc(b1-2)Man(a1-3)]Man(b1-4)GlcNAc(b1-4)GlcNAc
# Procedure, shortened: as §1
# [14] = molecular target: Gal(b1-4)GlcNAc(b1-2)[Gal(b1-4)GlcNAc(b1-6)]Man(a1-6)[GlcNAc(b1-4)][Gal(b1-4)GlcNAc(b1-2)Man(a1-3)]Man(b1-4)GlcNAc(b1-4)GlcNAc
# Procedure, shortened: as §1
# [15] = molecular target: Gal(b1-4)GlcNAc(b1-3)Gal(b1-3)GlcNAc
# Procedure, shortened: as §1
# [16] = molecular target: Gal(b1-4)GlcNAc(b1-3)Gal(b1-4)Glc
# Procedure, shortened: as §1
# [17] = molecular target: Gal(b1-4)GlcNAc(b1-3)Gal(b1-4)GlcNAc
# Procedure, shortened: as §1
# [18] = molecular target: Gal(b1-4)GlcNAc(b1-3)Gal(b1-4)GlcNAc(b1-3)Gal(b1-4)GlcNAc
# Procedure, shortened: as §1
# [19] = molecular target: Gal(b1-4)GlcNAc(b1-3)Gal(b1-4)[Fuc(a1-3)GlcNAc(b1-6)]Gal(b1-4)Glc
# Procedure, shortened: as §1
# [20] = molecular target: Gal(b1-4)GlcNAc(b1-3)Gal(b1-4)[Fuc(a1-3)]GlcNAc(b1-3)Gal(b1-4)[Fuc(a1-3)]GlcNAc
# Procedure, shortened: as §1
# [21] = molecular target: Gal(b1-4)GlcNAc(b1-3)GalNAc
# Procedure, shortened: as §1
# [22] = molecular target: Gal(b1-4)GlcNAc(b1-3)[Gal(b1-4)GlcNAc(b1-6)]Gal(b1-4)GlcNAc
# Procedure, shortened: as §1
# [23] = molecular target: Gal(b1-4)GlcNAc(b1-3)[Gal(b1-4)GlcNAc(b1-6)]GalNAc
# Procedure, shortened: as §1
# [24] = molecular target: Gal(b1-4)GlcNAc(b1-3)[GlcNAc(b1-6)]Gal(b1-4)GlcNAc
# Procedure, shortened: as §1
# [25] = molecular target: Gal(b1-4)GlcNAc(b1-6)Gal(b1-4)GlcNAc
# Procedure, shortened: as §1
# [26] = molecular target: Gal(b1-4)GlcNAc(b1-6)GalNAc
# Procedure, shortened: as §1
# [27] = molecular target: Gal(b1-4)GlcNAc(b1-6)[Gal(b1-3)]GalNAc
# Procedure, shortened: as §1
# [28] = molecular target: Gal(b1-6)Gal
# Procedure, shortened: as §1
# [29] = molecular target: Gal3S(b1-3)GalNAc
# Procedure, shortened: as §1
# [30] = molecular target: Gal3S(b1-3)GlcNAc
# Procedure, shortened: as §1
# [31] = molecular target: Gal3S(b1-3)[Fuc(a1-4)]GlcNAc
# Procedure, shortened: as §1
# [32] = molecular target: Gal3S(b1-4)Glc
# Procedure, shortened: as §1
# [33] = molecular target: Gal3S(b1-4)Glc6S
# Procedure, shortened: as §1
# [34] = molecular target: Gal3S(b1-4)GlcNAc
# Procedure, shortened: as §1
# [35] = molecular target: Gal3S(b1-4)GlcNAc6S
# Procedure, shortened: as §1
# [36] = molecular target: Gal3S(b1-4)[Fuc(a1-3)]Glc
# Procedure, shortened: as §1
# [37] = molecular target: Gal3S(b1-4)[Fuc(a1-3)]Glc6S
# Procedure, shortened: as §1
# [38] = molecular target: Gal3S4S(b1-4)GlcNAc
# Procedure, shortened: as §1
# [39] = molecular target: Gal3S6S(b1-4)GlcNAc
# Procedure, shortened: as §1
# [40] = molecular target: Gal3S6S(b1-4)GlcNAc6S
# Procedure, shortened: as §1
# [41] = molecular target: Gal4S(b1-4)GlcNAc
# Procedure, shortened: as §1
# [42] = molecular target: Gal4S6S(b1-4)GlcNAc
# Procedure, shortened: as §1
# [43] = molecular target: Gal6S(b1-3)GlcNAc
# Procedure, shortened: as §1
# [44] = molecular target: Gal6S(b1-3)GlcNAc6S
# Procedure, shortened: as §1
# [45] = molecular target: Gal6S(b1-4)Glc
# Procedure, shortened: as §1
binder,measurement,setting,value
Gz-CVNH (Gibberella zeae) (protein) MGSSHHHHHHSSGLVPRGSHMGNFHESSNNIWLEDGHILHAECGNGEGDYVESTLDLDYYIGNDDGSFSWGGENFSGSASNITLDIEGDDNIPVLRAELNPMDGDPVEANVNLSERIGNDCGTLIFLA,glycan array binding signal (z-score),[1],-0.123
same,glycan array binding signal (z-score),[2],-0.105
same,glycan array binding signal (z-score),[3],-0.113
same,glycan array binding signal (z-score),[4],-0.125
same,glycan array binding signal (z-score),[5],-0.144
same,glycan array binding signal (z-score),[6],-0.144
same,glycan array binding signal (z-score),[7],-0.135
same,glycan array binding signal (z-score),[8],-0.124
same,glycan array binding signal (z-score),[9],-0.108
same,glycan array binding signal (z-score),[10],-0.081
same,glycan array binding signal (z-score),[11],-0.121
same,glycan array binding signal (z-score),[12],-0.135
same,glycan array binding signal (z-score),[13],-0.094
same,glycan array binding signal (z-score),[14],-0.124
same,glycan array binding signal (z-score),[15],-0.135
same,glycan array binding signal (z-score),[16],-0.114
same,glycan array binding signal (z-score),[17],-0.127
same,glycan array binding signal (z-score),[18],-0.149
same,glycan array binding signal (z-score),[19],-0.116
same,glycan array binding signal (z-score),[20],-0.14
same,glycan array binding signal (z-score),[21],-0.145
same,glycan array binding signal (z-score),[22],-0.131
same,glycan array binding signal (z-score),[23],-0.116
same,glycan array binding signal (z-score),[24],-0.154
same,glycan array binding signal (z-score),[25],-0.139
same,glycan array binding signal (z-score),[26],-0.125
same,glycan array binding signal (z-score),[27],-0.132
same,glycan array binding signal (z-score),[28],-0.12
same,glycan array binding signal (z-score),[29],-0.165
same,glycan array binding signal (z-score),[30],-0.136
same,glycan array binding signal (z-score),[31],-0.158
same,glycan array binding signal (z-score),[32],-0.107
same,glycan array binding signal (z-score),[33],-0.139
same,glycan array binding signal (z-score),[34],-0.166
same,glycan array binding signal (z-score),[35],-0.15
same,glycan array binding signal (z-score),[36],-0.09
same,glycan array binding signal (z-score),[37],0.005
same,glycan array binding signal (z-score),[38],-0.152
same,glycan array binding signal (z-score),[39],-0.145
same,glycan array binding signal (z-score),[40],-0.164
same,glycan array binding signal (z-score),[41],-0.165
same,glycan array binding signal (z-score),[42],-0.126
same,glycan array binding signal (z-score),[43],-0.134
same,glycan array binding signal (z-score),[44],-0.077
same,glycan array binding signal (z-score),[45],-0.099

# From the supplement of paper PMC8728848
